In the RNAGym collection of RNA variant scans (doi:10.7554/elife.90254):
Read counts are not given, so values of variants with three or more changes are uncertain.

B1: OR4K15 (parent)
chain: GUUAACGGUCAUAGGCCAUGGAAACUAGGAGCACCAUUUCGCUGCCAGUGAAGAAAUGAACAAAGAAAAUCUGGGCCAGGCAGGCAUCAAAAGAAAUAGUCUUGCGCUCAACCAGAAAGUCUGUAAUCAUUUUAAGGGUA

Variants of: B1
Experiment: self-cleavage, relative activity (ratio to wild type); higher = more cleavage; in vitro, sequencing; the parent is a self-cleaving ribozyme
With A55G A89G U102C the self-cleavage was 0.53. Variant A54C A56G A60G has a self-cleavage of 1.13. For A55C A60G A114C, the self-cleavage was 0. Variant A54G A64G U103C has a self-cleavage of 0.74. A55G A78G A135G gave a self-cleavage of 0.25. Work on A54G A63G U70C U87C yielded a self-cleavage of 0.92. In the case of A55G A60G A90U A94G, the self-cleavage is reported as 1.05. In the case of A55G A89G U103C U139C, the self-cleavage is reported as 0.57. A52G A86G U87C showed a self-cleavage of 1.27. For A54G A110G G115A G119A U127C, the self-cleavage was 0.02. A56G A62C A94G G123A showed a self-cleavage of 1.3. For A54G A62G A96G, the self-cleavage was 0.9. Variant A54G A68G U108C has a self-cleavage of 0.03. A55G A90G A116C showed a self-cleavage of 0.02. With A54G A55G A110G G136A the self-cleavage was 0.15. With A55G A66U A92G the self-cleavage was 0.42. With A56G A59G A96G A114U the self-cleavage was 0.06. With A55G A95G A135U the self-cleavage was 1.83. For A54G A55G A66G, the self-cleavage was 0.54. With A54G A64U U103C the self-cleavage was 0.57. For A52G U102A G106A, the self-cleavage was 0.01. In the case of A54U A68G A86C C113A, the self-cleavage is reported as 0.02. Variant A55G U87A A96G A129G has a self-cleavage of 0.8. Variant A52G A82U A94G U127C A135G has a self-cleavage of 0.01. With A52U A55U A86G A92G the self-cleavage was 1.26. A52U A95U A114G C121A showed a self-cleavage of 1.22. For A55G A91G A117G, the self-cleavage was 1.02. Variant A56C A62G A94G has a self-cleavage of 1.29. With A54G G58A A59G the self-cleavage was 1.31. Work on A52G C85U U108C yielded a self-cleavage of 0.01. With A55G U57C U108C the self-cleavage was 0.02. A54G U122C U131C showed a self-cleavage of 1.25. A55U A95G U133C gave a self-cleavage of 2.87. Variant A56G A59G A92G has a self-cleavage of 1.16. With A55C U108G U122A the self-cleavage was 0.08. Work on A52G A89G A92G yielded a self-cleavage of 0.48. With A52G U57G A125G the self-cleavage was 0.13. For A55G A62G A86G A117G, the self-cleavage was 1.14. A54U A59G A69G A117U showed a self-cleavage of 0.31. In the case of A54G A60G U103A, the self-cleavage is reported as 0.14. A52G U70A A126C gave a self-cleavage of 0.26. With A55G C105U A125G A126G the self-cleavage was 0.01. In the case of A54U A67G U127C, the self-cleavage is reported as 0.15. In the case of A55G U72C A114U, the self-cleavage is reported as 0.1. Work on A54G A98G A126U yielded a self-cleavage of 0.4. A54G A69G A91G A114G gave a self-cleavage of 0.33. In the case of A54U A86G A114G, the self-cleavage is reported as 0.48. With A54G A59G A82G U108C the self-cleavage was 0.1. In the case of A54G U57G A60G A63G A98U A129U, the self-cleavage is reported as 0.6. A55G U102C U122C gave a self-cleavage of 1.65. A56G A68G A86G A91G U124A showed a self-cleavage of 0.06. In the case of A54U A60G A69G A78U, the self-cleavage is reported as 0.27. A55G A56G U57G A94C showed a self-cleavage of 0.22. A55G A89G A90G A98G U122G A125G showed a self-cleavage of 0.18. In the case of A54G A60G A110G U130C, the self-cleavage is reported as 0.1. A55C A95G C101U gave a self-cleavage of 1.31. A54G U102A C105A gave a self-cleavage of 0.02. A54G A67G U72C U87A A110U showed a self-cleavage of 0.31. For A52U A55G A64G, the self-cleavage was 1.32. For A54U A64G U108C, the self-cleavage was 0.04. Work on A52G A92G U102C U108C A140G yielded a self-cleavage of 0. For A54G U72C A126G, the self-cleavage was 0.19. With A54G C88A A94G A118G the self-cleavage was 2.43. Variant A54G A68G U132C has a self-cleavage of 0.35. Variant A55G A89G A96G A111G has a self-cleavage of 0. A55U A66G A69G showed a self-cleavage of 0.85. In the case of A56C A60G U87C A116G A135G, the self-cleavage is reported as 0.13. For A54G A55G A64G, the self-cleavage was 1.74. Work on A56G A60G U70C A78C A89G A95G U120C yielded a self-cleavage of 0.02. A54G A64U U127A showed a self-cleavage of 1.94. In the case of A56G A64G A95G U124C A135U, the self-cleavage is reported as 1.67. A55G U57G U122C gave a self-cleavage of 0.87. For A55G A68G U130C A135G, the self-cleavage was 1.45. Work on A54G A56G A90G U97G G138A yielded a self-cleavage of 0.87. Work on A52G U57C A64G A111G yielded a self-cleavage of 0.02. A56G A64G A86G A91G gave a self-cleavage of 0.08. Variant A52G A114G U130C has a self-cleavage of 0.16. Work on A56C A82G A89C A90G yielded a self-cleavage of 0.36. With A55C A117G U120C the self-cleavage was 0.89. For G53U A89G A117U, the self-cleavage was 1.62. For A54G A68G U70A, the self-cleavage was 0.61. A52G U57C A92G gave a self-cleavage of 1.51. A55G A64G A91G gave a self-cleavage of 0.89. A52G G58U U108C A114C gave a self-cleavage of 0.01. Variant A55G U72C U124C has a self-cleavage of 0.16. A55G A64G G119A showed a self-cleavage of 1.41. With A54G A69G A114U U122C U139A the self-cleavage was 0.03. A54G A69G A95G showed a self-cleavage of 1.2. In the case of A54G A59G A66G U102C U108C, the self-cleavage is reported as 0.02. For A54G A63G U130C, the self-cleavage was 0.84. In the case of A56C U108A U131C, the self-cleavage is reported as 0.02. In the case of A54G U103C U127C, the self-cleavage is reported as 0.32. A55G U139C A140G showed a self-cleavage of 0.94. A55G A69U A91G A111G gave a self-cleavage of 0.03. For A56G A60G U87C A94G A96G U130C, the self-cleavage was 1.8. A55G U132C A134G showed a self-cleavage of 1.12. A56G A60G U122C gave a self-cleavage of 1.08. For A55G A86C A116U, the self-cleavage was 0.1. A52G U57C U133C showed a self-cleavage of 0.96. A52G U57C U133A showed a self-cleavage of 0.86. Work on A55G A66G U72C U103C A114G yielded a self-cleavage of 1.17. Work on A56G A64G U87C yielded a self-cleavage of 0.53. Work on A55G A92G A118U yielded a self-cleavage of 0.33. A54G A66G C71U C107U showed a self-cleavage of 0.02. A55G A95G U97A U102C U127C U131C showed a self-cleavage of 1.87. A54U U100G U131C showed a self-cleavage of 2.68. With A55U A67G A89C the self-cleavage was 1.65. Variant A52G G74A U103C has a self-cleavage of 0.2. Variant A52G U132A U139A has a self-cleavage of 1.6. In the case of A52U U100C A135U, the self-cleavage is reported as 2.53. A56G A60G G106A A111G A117G showed a self-cleavage of 0.01. A54G A55G U57C A63G U72A A92G A95G U103C A118G gave a self-cleavage of 0.02. Variant A55G C88A U127A has a self-cleavage of 2. For A54G A59G U108C, the self-cleavage was 0.03. With A52U A60G U70C the self-cleavage was 0.65. For A54G A64U A89G, the self-cleavage was 0.41. Variant A56G A67G U103C has a self-cleavage of 0.62. For A56G A60G A63G U122A, the self-cleavage was 0.32. Work on A52G U87G A92G U139C yielded a self-cleavage of 0.43. In the case of A54G A98G G99A, the self-cleavage is reported as 1.53. Variant A55G A94G U120A has a self-cleavage of 1.38. A54G A90G U102C A111G gave a self-cleavage of 0. Work on A55G A67G U108C U132C yielded a self-cleavage of 0.01. With A54G A64G A66G A86U U102A U103C the self-cleavage was 0.08. With A55G A91G A95G A118G the self-cleavage was 1.6. A54G A59G A67U showed a self-cleavage of 0.97. With A55U A126G U127C the self-cleavage was 0.67. Variant A55G A60G A66G G119U has a self-cleavage of 1.24. Work on A55G A78G A91G yielded a self-cleavage of 0.05. In the case of A54G C101A G106A U133A, the self-cleavage is reported as 0.01. For A54G C76U A140G, the self-cleavage was 0.13. A55U A60G A67G showed a self-cleavage of 1.22. A55G U57C U87A U130C A135G showed a self-cleavage of 1.56. A52U U102C A140G showed a self-cleavage of 1.76. Work on A55G A94G A117U yielded a self-cleavage of 1.01. Work on A54U A60G A89U yielded a self-cleavage of 1.76. Work on A52G U72A A78U yielded a self-cleavage of 0.12. G53A C109U A111U showed a self-cleavage of 0.07. A54G A78G A134G gave a self-cleavage of 0.24. For A52G U70C U130C, the self-cleavage was 0.41. A52G A69G A89U gave a self-cleavage of 0.76. Variant A55G C88U A110G U120A U122C has a self-cleavage of 0.09. Variant A54G A62G C76U A95G A135G U139A has a self-cleavage of 0.03. With A52G A89C A94G the self-cleavage was 2.37. A52G A82U U127A gave a self-cleavage of 0.57. A55G A78U U122C gave a self-cleavage of 0.26. With A52G U108C A117G the self-cleavage was 0. Variant A55G U122G A129G G138A has a self-cleavage of 1.67. A55G A60G U97G gave a self-cleavage of 0.9. A55G A60G A86G gave a self-cleavage of 1.29. Work on A52U A62G A89G A140G yielded a self-cleavage of 0.33. A54U U72C A90G U122G showed a self-cleavage of 0.35. With A55G A56G A140G the self-cleavage was 0.91. For A56G A66G A67G A92G A111G, the self-cleavage was 0.05. A52G A90G U139A showed a self-cleavage of 0.88. With A54G A68G U122C A135G the self-cleavage was 0.32. Variant A54G A69G A86G has a self-cleavage of 0.68. Work on A52G A89U U97A yielded a self-cleavage of 1.67. In the case of A56G A67G A68G U124C U139A, the self-cleavage is reported as 1.16. For A55G U131C A140G, the self-cleavage was 1.6. In the case of A54G A68G A96G G115A U132C, the self-cleavage is reported as 0.53. In the case of A54G U87C A92U, the self-cleavage is reported as 1.85. A54G A82U A134G showed a self-cleavage of 0.22. For A54G A89G A92G, the self-cleavage was 1.28. With A56G A60G U72A U87C A110G the self-cleavage was 0.05. In the case of A54G A116G U130C, the self-cleavage is reported as 0.33. A55G U108C C113U gave a self-cleavage of 0.03.
